Measurements as given in publication PMC12820563, “FoxP3 forms a head-to-head dimer in vivo and stabilizes its multimerization on adjacent microsatellites”.
Some of the results follow.

What follows are sequences tested against T1, MBP-FoxP1dN (Mus musculus, UniProt P58462 326-579) (assay: PD-seq (MBP pull-down with sequencing); 20 mM Tris-HCl pH 7.5, 100 mM NaCl, 1.5 mM MgCl2, 0.4 uM protein, 0.1 uM dsDNA library, 30 min, room temperature, amylose pull-down; high values mean tight binding). Details: protein: recombinant; tags: His6-MBP; chain copies: 2; dsDNA, one strand shown.
T1 sequence: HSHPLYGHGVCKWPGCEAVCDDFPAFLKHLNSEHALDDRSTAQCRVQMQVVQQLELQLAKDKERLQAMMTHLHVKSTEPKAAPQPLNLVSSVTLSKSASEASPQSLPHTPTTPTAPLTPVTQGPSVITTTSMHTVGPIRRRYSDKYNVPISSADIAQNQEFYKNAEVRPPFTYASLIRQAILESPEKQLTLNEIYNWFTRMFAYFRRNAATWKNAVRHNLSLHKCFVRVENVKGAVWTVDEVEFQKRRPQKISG
Procedure, shortened: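 Binding is the reads-per-million enrichment of pull-down relative to input, pooled across replicates. For this, 0.4 µM His6-MBP-tagged mouse FoxP3 or FoxP1 fragment lacking the N-terminus, made in E. coli, was incubated with 0.1 µM Klenow-filled double-stranded degenerate DNA library for 30 min at room temperature in Tris pH 7.5 buffer with NaCl and MgCl2. Complexes bound to amylose resin were washed three times before proteinase K released the DNA for PCR barcoding and Illumina sequencing.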

Sequence	binding signal
GATGATTGTTCTCCCAGCTGATGAATTCTACAGATCGAGTAAACAAATTTTCCTAATCTTTCTGTTCAAGCGCCATCTAC	0.89 RPM ratio (pull-down/input)
GATGATTGTTCTCCCAGCTGATGAATTGCGGCATTCGAGTAAACAAATTTTCCTAATCTTTCTGTTCAAGCGCCATCTAC	1.33 RPM ratio (pull-down/input)
GATGATTGTTCTCCCAGCTGATGAATTTCTTGTTTCGAGTAAACAAATTTTCCTAATCTTTCTGTTCAAGCGCCATCTAC	1.14 RPM ratio (pull-down/input)
GATGATTGTTCTCCCAGCTGATGAATTAGACGGATCGAGTAAACAAATTTTCCTAATCTTTCTGTTCAAGCGCCATCTAC	0.947 RPM ratio (pull-down/input)
GATGATTGTTCTCCCAGCTGATGAATTTTATCATTCGAGTAAACAAATTTTCCTAATCTTTCTGTTCAAGCGCCATCTAC	1.2 RPM ratio (pull-down/input)
GATGATTGTTCTCCCAGCTGATGAATTACTGTCCTCGAGTAAACAAATTTTCCTAATCTTTCTGTTCAAGCGCCATCTAC	0.938 RPM ratio (pull-down/input)
GATGATTGTTCTCCCAGCTGATGAATTTCCCGTGTCGAGTAAACAAATTTTCCTAATCTTTCTGTTCAAGCGCCATCTAC	0.829 RPM ratio (pull-down/input)
GATGATTGTTCTCCCAGCTGATGAATTCGCAAGGTCGAGTAAACAAATTTTCCTAATCTTTCTGTTCAAGCGCCATCTAC	0.82 RPM ratio (pull-down/input)
GATGATTGTTCTCCCAGCTGATGAATTTTATGCCTCGAGTAAACAAATTTTCCTAATCTTTCTGTTCAAGCGCCATCTAC	1.02 RPM ratio (pull-down/input)
GATGATTGTTCTCCCAGCTGATGAATTGATTTGATCGAGTAAACAAATTTTCCTAATCTTTCTGTTCAAGCGCCATCTAC	1.07 RPM ratio (pull-down/input)
GATGATTGTTCTCCCAGCTGATGAATTCTTGTAGTCGAGTAAACAAATTTTCCTAATCTTTCTGTTCAAGCGCCATCTAC	1.2 RPM ratio (pull-down/input)
GATGATTGTTCTCCCAGCTGATGAATTCGATGCTTCGAGTAAACAAATTTTCCTAATCTTTCTGTTCAAGCGCCATCTAC	0.974 RPM ratio (pull-down/input)
GATGATTGTTCTCCCAGCTGATGAATTTCTATCTTCGAGTAAACAAATTTTCCTAATCTTTCTGTTCAAGCGCCATCTAC	0.883 RPM ratio (pull-down/input)
GATGATTGTTCTCCCAGCTGATGAATTAAATTGTTCGAGTAAACAAATTTTCCTAATCTTTCTGTTCAAGCGCCATCTAC	1 RPM ratio (pull-down/input)
GATGATTGTTCTCCCAGCTGATGAATTCAGTCGTTCGAGTAAACAAATTTTCCTAATCTTTCTGTTCAAGCGCCATCTAC	0.873 RPM ratio (pull-down/input)
GATGATTGTTCTCCCAGCTGATGAATTAATGCCTTCGAGTAAACAAATTTTCCTAATCTTTCTGTTCAAGCGCCATCTAC	1.15 RPM ratio (pull-down/input)
GATGATTGTTCTCCCAGCTGATGAATTGTGTAATTCGAGTAAACAAATTTTCCTAATCTTTCTGTTCAAGCGCCATCTAC	1.32 RPM ratio (pull-down/input)
GATGATTGTTCTCCCAGCTGATGAATTTACGGTATCGAGTAAACAAATTTTCCTAATCTTTCTGTTCAAGCGCCATCTAC	1.19 RPM ratio (pull-down/input)
GATGATTGTTCTCCCAGCTGATGAATTATGACGATCGAGTAAACAAATTTTCCTAATCTTTCTGTTCAAGCGCCATCTAC	0.937 RPM ratio (pull-down/input)
GATGATTGTTCTCCCAGCTGATGAATTGCCCCCATCGAGTAAACAAATTTTCCTAATCTTTCTGTTCAAGCGCCATCTAC	0.972 RPM ratio (pull-down/input)

Sequence	binding signal
GATGATTGTTCTCCCAGCTGATGAATTTGATTGATCGAGTAAACAAATTTTCCTAATCTTTCTGTTCAAGCGCCATCTAC	1.1 RPM ratio (pull-down/input)
GATGATTGTTCTCCCAGCTGATGAATTCTCAACGTCGAGTAAACAAATTTTCCTAATCTTTCTGTTCAAGCGCCATCTAC	0.888 RPM ratio (pull-down/input)
GATGATTGTTCTCCCAGCTGATGAATTGCCTAGGTCGAGTAAACAAATTTTCCTAATCTTTCTGTTCAAGCGCCATCTAC	0.859 RPM ratio (pull-down/input)
GATGATTGTTCTCCCAGCTGATGAATTTGACTCGTCGAGTAAACAAATTTTCCTAATCTTTCTGTTCAAGCGCCATCTAC	0.908 RPM ratio (pull-down/input)
GATGATTGTTCTCCCAGCTGATGAATTAAATGACTCGAGTAAACAAATTTTCCTAATCTTTCTGTTCAAGCGCCATCTAC	0.967 RPM ratio (pull-down/input)
GATGATTGTTCTCCCAGCTGATGAATTCGAACATTCGAGTAAACAAATTTTCCTAATCTTTCTGTTCAAGCGCCATCTAC	1 RPM ratio (pull-down/input)
GATGATTGTTCTCCCAGCTGATGAATTTGTTCCATCGAGTAAACAAATTTTCCTAATCTTTCTGTTCAAGCGCCATCTAC	1.24 RPM ratio (pull-down/input)
GATGATTGTTCTCCCAGCTGATGAATTAGCCCGTTCGAGTAAACAAATTTTCCTAATCTTTCTGTTCAAGCGCCATCTAC	0.839 RPM ratio (pull-down/input)
GATGATTGTTCTCCCAGCTGATGAATTCAGTGCTTCGAGTAAACAAATTTTCCTAATCTTTCTGTTCAAGCGCCATCTAC	0.823 RPM ratio (pull-down/input)
GATGATTGTTCTCCCAGCTGATGAATTCGGCGCTTCGAGTAAACAAATTTTCCTAATCTTTCTGTTCAAGCGCCATCTAC	0.87 RPM ratio (pull-down/input)
GATGATTGTTCTCCCAGCTGATGAATTTCTCAAATCGAGTAAACAAATTTTCCTAATCTTTCTGTTCAAGCGCCATCTAC	1 RPM ratio (pull-down/input)
GATGATTGTTCTCCCAGCTGATGAATTGTCGAGATCGAGTAAACAAATTTTCCTAATCTTTCTGTTCAAGCGCCATCTAC	0.918 RPM ratio (pull-down/input)
GATGATTGTTCTCCCAGCTGATGAATTTCGTTGTTCGAGTAAACAAATTTTCCTAATCTTTCTGTTCAAGCGCCATCTAC	1.23 RPM ratio (pull-down/input)
GATGATTGTTCTCCCAGCTGATGAATTTTATCTGTCGAGTAAACAAATTTTCCTAATCTTTCTGTTCAAGCGCCATCTAC	0.918 RPM ratio (pull-down/input)
GATGATTGTTCTCCCAGCTGATGAATTTGGTCGTTCGAGTAAACAAATTTTCCTAATCTTTCTGTTCAAGCGCCATCTAC	0.921 RPM ratio (pull-down/input)
GATGATTGTTCTCCCAGCTGATGAATTTTCTGGCTCGAGTAAACAAATTTTCCTAATCTTTCTGTTCAAGCGCCATCTAC	0.777 RPM ratio (pull-down/input)
GATGATTGTTCTCCCAGCTGATGAATTCAGCCCATCGAGTAAACAAATTTTCCTAATCTTTCTGTTCAAGCGCCATCTAC	0.816 RPM ratio (pull-down/input)
GATGATTGTTCTCCCAGCTGATGAATTTATGCGATCGAGTAAACAAATTTTCCTAATCTTTCTGTTCAAGCGCCATCTAC	1.16 RPM ratio (pull-down/input)
GATGATTGTTCTCCCAGCTGATGAATTTGTAGAGTCGAGTAAACAAATTTTCCTAATCTTTCTGTTCAAGCGCCATCTAC	0.866 RPM ratio (pull-down/input)
GATGATTGTTCTCCCAGCTGATGAATTTAGATGGTCGAGTAAACAAATTTTCCTAATCTTTCTGTTCAAGCGCCATCTAC	1.02 RPM ratio (pull-down/input)
